# Screen size: about 310,000 compounds; about 14,000 (4.5%) showed an effect of 50% or more. The effect is printed as a negative number. This is one part of the list.
# Biological target: human ether-à-go-go-related gene (hERG) potassium channel (human, UniProt Q12809)
# Test: primary screen, population patch clamp on CHO cells stably expressing hERG
# 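Note: peak tail current of the secondary pulse compared with the same well before compound.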
# Chain of human ether-à-go-go-related gene (hERG) potassium channel (Q12809 whole entry, looked up): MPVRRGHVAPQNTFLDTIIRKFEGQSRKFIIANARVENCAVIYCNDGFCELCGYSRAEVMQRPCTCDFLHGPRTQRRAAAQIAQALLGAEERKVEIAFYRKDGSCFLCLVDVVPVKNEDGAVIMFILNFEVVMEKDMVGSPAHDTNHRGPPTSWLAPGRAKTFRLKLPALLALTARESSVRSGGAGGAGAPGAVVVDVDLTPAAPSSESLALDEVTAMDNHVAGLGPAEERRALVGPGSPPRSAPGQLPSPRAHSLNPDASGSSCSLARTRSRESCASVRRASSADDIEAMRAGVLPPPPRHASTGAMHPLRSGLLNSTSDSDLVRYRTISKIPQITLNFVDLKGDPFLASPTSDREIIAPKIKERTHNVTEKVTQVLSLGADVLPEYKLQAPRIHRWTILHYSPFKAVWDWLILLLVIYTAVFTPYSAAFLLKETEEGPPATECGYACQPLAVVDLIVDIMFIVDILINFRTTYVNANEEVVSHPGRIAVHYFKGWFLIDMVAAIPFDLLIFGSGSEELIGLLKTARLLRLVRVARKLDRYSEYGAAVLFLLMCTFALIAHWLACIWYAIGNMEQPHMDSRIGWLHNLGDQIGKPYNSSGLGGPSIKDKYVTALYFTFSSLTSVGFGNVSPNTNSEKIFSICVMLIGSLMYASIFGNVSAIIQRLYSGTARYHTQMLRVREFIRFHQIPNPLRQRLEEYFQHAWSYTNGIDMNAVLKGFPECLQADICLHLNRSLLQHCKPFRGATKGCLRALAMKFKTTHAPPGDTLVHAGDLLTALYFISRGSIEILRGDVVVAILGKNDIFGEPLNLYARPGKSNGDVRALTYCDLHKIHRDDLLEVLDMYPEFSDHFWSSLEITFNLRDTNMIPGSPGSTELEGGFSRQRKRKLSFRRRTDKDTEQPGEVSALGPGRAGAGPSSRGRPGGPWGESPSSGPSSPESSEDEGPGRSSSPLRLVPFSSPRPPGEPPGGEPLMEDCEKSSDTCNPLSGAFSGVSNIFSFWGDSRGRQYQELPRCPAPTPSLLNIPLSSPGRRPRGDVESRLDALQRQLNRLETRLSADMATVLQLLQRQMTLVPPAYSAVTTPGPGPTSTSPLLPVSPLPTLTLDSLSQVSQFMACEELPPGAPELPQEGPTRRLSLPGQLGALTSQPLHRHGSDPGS
row,Structure (SMILES),"hERG current change (%, negative = inhibition) at 10uM"
1,Cc1ccc2nc(S(=O)(=O)O)[nH]c2c1,-9.19%
2,COc1ccccc1NC(=O)c1cccnc1,5.89%
3,NC(=O)NC(=O)COC(=O)c1ccc2c(c1)C(=O)N(Cc1ccccc1)C2=O,6.55%
4,O=C(Nc1ccccc1)c1ccc(F)c(S(=O)(=O)N2CCOCC2)c1,0.584%
5,O=C(O)c1ccc(N=c2oc3cc(O)ccc3cc2C(=O)NCc2ccccc2)cc1,4.83%
6,N#Cc1ccccc1OCCn1cncn1,20.2%
7,Cc1c(C)c2ccc(OCC(=O)Nc3ccc(S(N)(=O)=O)cc3)c(C)c2oc1=O,13.8%
8,O=C(CN1CCOCC1)Nc1scc(-c2ccccc2)c1C(=O)N1CCOCC1,-34.9%
9,CN(C)c1ccc(C2CC(=O)OC3=C2C(=O)CC(C)(C)C3)cc1 (centres unmarked),9.71%
10,CN1CCN(/N=C/c2nc(-c3cccc([N+](=O)[O-])c3)n3ccccc23)CC1,-29.4%
11,N#Cc1c(-c2ccco2)nc(SCc2ccc(F)cc2)[nH]c1=O,-5.28%
12,COc1cc(OC)cc(C(=O)N2CCN(c3ccccc3F)CC2)c1,-11.6%
13,O=C(Cn1ccc(C(F)(F)F)n1)NNC(=O)c1cccnc1,-0.995%
14,CC(C)(C)C(=O)NC(=S)NCCc1ccccc1,-3.23%
15,COc1ccccc1CCCNC(=O)C1CCC(=O)N(CCN2CCOCC2)C1 (centres unmarked),0.311%
16,COC(=O)c1cc(CNC(=O)c2cccc(Cl)c2Cl)ccc1OC,-37.6%
17,O=c1c2ccccc2nc(/C=C/c2cccnc2)n1CCc1ccccc1,-39.2%
18,O=C(CSc1nnc(-c2ccncc2)n1CC1CCCO1)Nc1ccccc1Cl (centres unmarked),-9.08%
19,Cc1ccc(S(=O)(=O)CCSc2cccc(C(=O)O)c2)cc1,12.5%
20,O=C(c1cccc(S(=O)(=O)N2CCOCC2)c1)N1CCN(c2ccccc2)CC1,-15.7%
21,CCSC(=O)N(CC)CC(=O)Nc1c(CC)cccc1CC,6.48%
22,CC1(C)C2CCC1(CS(=O)(=O)N1CCN(c3ccccc3F)CC1)C(=O)C2 (centres unmarked),11.1%
23,COc1ccc(CNC(=O)C(=O)NCC2CCCN2S(=O)(=O)c2ccccc2)cc1 (centres unmarked),-49.5%

row,Structure (SMILES),"hERG current change (%, negative = inhibition) at 10uM"
1,ClC(/C=N/n1cnnc1)=C/c1ccccc1,2.33%
2,CN(C)CCNC(=O)C(=O)NCC1CCCN1S(=O)(=O)c1cccs1 (centres unmarked),16.3%
3,CC(NC(=S)NC1CCCCC1)C(c1cccs1)N1CCOCC1 (centres unmarked),-0.732%
4,COCCCn1c(C(=O)N2CCOCC2)cc2c(=O)n3ccccc3nc21,2.75%
5,Cc1[nH]c2ccccc2c1CCNC(=O)c1ccc2c(c1[N+](=O)[O-])C(=O)c1ccccc1C2=O,14.2%
6,CCC(C)[C@H](N)c1cn([C@@H](CCCCN)C(=O)N2CCNCC2)nn1.Cl (some centres unmarked),18.8%
7,CCOc1ccc(S(=O)(=O)Nc2ccc(S(=O)(=O)Nc3cc(OC)ccc3OC)cc2)cc1,-5.67%
8,CCOc1cc(-c2noc(CCC(=O)N3CCOCC3)n2)ccc1OC,9.19%
9,O=C(OCC(=O)c1cccs1)c1ccc([N+](=O)[O-])o1,9.41%
10,O=C(Nc1ccccc1C(=O)N1CCCCCC1)c1cccc([N+](=O)[O-])c1,-12.2%
11,Cc1cc(NC(=O)c2cc(C)on2)n(-c2ccccc2)n1,2.46%
12,COc1cccc(-c2nnc(Nc3nc4c(F)cccc4s3)o2)c1,10.4%
13,Cc1c(Br)c([N+](=O)[O-])nn1CCCC(=O)Nc1sc2c(c1C#N)CCC2,-40.4%
14,O=C(O)c1ccc(C=C(c2nc3ccccc3s2)c2nc3ccccc3s2)cc1,20%
15,O=c1c2ccccc2nc(Cc2ccccc2)n1-c1ccccc1O,2.31%
16,Cc1nc(-c2ccc(Cl)cc2)sc1C1(C)CC(c2cccnc2)=NO1 (centres unmarked),-23.4%
17,COc1ccc(N2Cc3ccccc3/C2=N\C(=O)Nc2ccccc2)cc1,-9.25%
18,Cc1ccc(C(=O)NCc2ccco2)cc1S(=O)(=O)N1CCCC1,-31.1%
19,O=C1c2ccccc2C(=O)N1CCc1csc(-c2cccc(F)c2)n1,-22.5%
20,Cc1ccc(Nc2nc3ccccc3c(=O)[nH]2)cc1C,25.2%
21,CCOC(=O)C1(Cc2cccc(OC)c2)CCCN(C(=O)c2ccccc2C)C1 (centres unmarked),-34.3%
22,CCN(CC)C(=O)CC(c1ccc(F)cc1)c1ccco1 (centres unmarked),10.5%
23,CC1CCC2(CC1)NC(=O)N(NC(=O)CCl)C2=O (centres unmarked),9.09%

row,Structure (SMILES),"hERG current change (%, negative = inhibition) at 10uM"
1,COc1ccc2[nH]c3c(c2c1)CCNC3C.Cl (centres unmarked),14.7%
2,COc1cc(CN2CCN(C(=O)c3ccccc3F)CC2)cc(OC)c1OC.O=C(O)C(=O)O,6.56%
3,CCOc1ccccc1NC(=O)C(C)N1C(=O)c2ccccc2S1(=O)=O (centres unmarked),-39.4%
4,CCOC(=O)Cn1c(-c2ccccc2)ccc(C#N)c1=O,8.28%
5,Fc1cccc(CNc2ncnc3cc(Cl)ccc23)c1F,2.02%
6,Cc1nc2n(n1)CC(O)CS2 (centres unmarked),7.2%
7,COc1ccc(C)cc1S(=O)(=O)N(C)CC(=O)NCc1ccccn1,13.1%
8,CCCNC(=O)Nc1ccccc1SC,8.84%
9,O=C(CCCN=C1NS(=O)(=O)c2ccccc21)OCC(=O)c1ccc(Br)cc1,11.8%
10,O=c1cc(O)c2ccc(O)cc2o1,20%
11,Cc1cc(C)c(S(=O)(=O)NCCCN2CCOCC2)cc1Br,-13.5%
12,O=C(NN=C1CCCCC1)Nc1ccccc1Cl,3.82%
13,COC(=O)c1c(NC(=O)c2ccccc2)sc(Cc2ccccc2)c1C,9.04%
14,Cc1nn(-c2ccccc2)c(C)c1/C=C/C(=O)OCC(=O)NC1CCS(=O)(=O)C1 (centres unmarked),16.7%
15,O=S(=O)(Cc1ccc(Cl)cc1)N1CCN(Cc2ccccc2)CC1,-5.96%
16,Cc1onc(-c2ccccc2Cl)c1C(=O)N1C=CC(C(F)(F)F)=NCC1,-3.61%
17,CCCCCCCCNc1nc(Cl)nc(NCCN2CCOCC2)n1,9.29%
18,COc1cc2nc(CN(C)Cc3ccc(SC)cc3)[nH]c(=O)c2cc1OC,-16.9%
19,C/C(CCC1CC(C)OC1=O)=N\NC(N)=S (centres unmarked),7.65%
20,CCCn1c(N2CCN(CC(=O)c3c(C)n(C)c4ccccc34)CC2)nc2c1c(=O)[nH]c(=O)n2C,-7.94%
21,CC(C)c1ccc2[nH]c3c(c2c1)[C@@H]1CCN2C(=O)CCC[C@H](C3)[C@H]12,-12.8%
22,CC(=O)Nc1ccc(S(=O)(=O)N2CCC(C(N)=O)(N3CCCCC3)CC2)cc1,10.1%
23,CC(C)c1ncc(C(O)c2cccc3ccccc23)n1C (centres unmarked),-1.74%

row,Structure (SMILES),"hERG current change (%, negative = inhibition) at 10uM"
1,O=[N+]([O-])c1cccc(S(=O)(=O)c2ccc(NCCOCCO)c([N+](=O)[O-])c2)c1,-38.3%
2,Cc1cccc(OCCSc2nc3c([nH]2)c(=N)ncn3Cc2ccccc2)c1,-1.53%
3,C/C(=N\NC(=O)Cn1cc([N+](=O)[O-])cn1)c1ccco1,2.38%
4,CCOc1ccc(NC(=O)Nc2nc(SCC)ns2)cc1,13.2%
5,O=C(/C=C/c1ccc(Cl)cc1)OCC(=O)c1ccc[nH]1,8.72%
6,COc1ccc(Cl)cc1NC(=O)C1CCN(S(C)(=O)=O)CC1,3.72%
7,CCOC(CCNC(=O)c1cn(C)c(=O)c2c1c1ccccc1n2C)OCC,-4.27%
8,Cc1ccc(C)c(OCC(=O)N/N=C/c2c(C)nn(-c3ccccc3)c2Cl)c1C,-0.0873%
9,COCCc1ccc(OCC(O)CNC(C)C)cc1.O=C(O)C(O)C(O)C(=O)O (centres unmarked),7.38%
10,CN(C)c1ccc(/C=N/NC(=O)c2ccc(CN3C(=O)c4cccc5cccc3c45)cc2)cc1,14.9%
11,CCC(C)COC(=O)c1ccc(C(=O)O)cc1 (centres unmarked),2.44%
12,N#CCCN(Cc1cccnc1)S(=O)(=O)c1ccc(S(=O)(=O)NC2CCCCC2)cc1,5.37%
13,COc1ccc(-n2c(Cc3cccn3C)nnc2SCC(=O)NCc2ccccc2Cl)cc1,-40.2%
14,CCCCN(C1CCS(=O)(=O)C1)S(=O)(=O)c1cc(C)ccc1C (centres unmarked),-20.9%
15,Cc1c(C(=O)N2CCN(C(=O)c3ccco3)CC2)oc2c(Cl)cccc12,-34.3%
16,CC(C)C(=O)NC(=S)Nc1ccc(S(=O)(=O)Nc2ccccc2)cc1,-15.2%
17,O=C(Nc1ccc(Cl)cc1)Nc1nnc(/C=C/c2ccccc2)s1,6.96%
18,Cc1cccc(N2CCN(C(c3ccncc3)c3nnnn3C(C)(C)C)CC2)c1C (centres unmarked),-23.8%
19,S=C(Nc1ccc(Cl)cc1Cl)Nn1cnnc1,56.7%
20,COc1ccc(CCNC(=O)c2c(O)c3ccccc3n(C)c2=O)cc1,-12.1%

# From publication PMC4336329 (PLoS ONE, 2015)
